# In all, about 33,000 sequences were measured (“E-score (-0.5 to 0.5)”: median about -0.053, highest 2% from about 0.37 on). The list shows a part of the results.
# Target: Hap1 (UniProt P0CE41)
# Test: PBM E-score (8-mer binding enrichment) (E-score (-0.5 to 0.5)); higher = stronger / more preferred TF binding; most listed sequences are background and not binding sites
# Conditions: protein concentration: 200 nM; construct: GST-DNA-binding domain
# Method in brief: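 For each ungapped eight-base word taken together with its reverse complement, the Universal PBM Analysis Suite assigned an E-score. Binding data came from GST-tagged yeast transcription factors, applied at about 100-200 nM, on universal all-10-mer Agilent arrays made double-stranded by primer extension. Fluorescent anti-GST marked bound protein, and scans were normalised with masliner.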
# UniProt P0CE41, sequence (P0CE41 whole entry): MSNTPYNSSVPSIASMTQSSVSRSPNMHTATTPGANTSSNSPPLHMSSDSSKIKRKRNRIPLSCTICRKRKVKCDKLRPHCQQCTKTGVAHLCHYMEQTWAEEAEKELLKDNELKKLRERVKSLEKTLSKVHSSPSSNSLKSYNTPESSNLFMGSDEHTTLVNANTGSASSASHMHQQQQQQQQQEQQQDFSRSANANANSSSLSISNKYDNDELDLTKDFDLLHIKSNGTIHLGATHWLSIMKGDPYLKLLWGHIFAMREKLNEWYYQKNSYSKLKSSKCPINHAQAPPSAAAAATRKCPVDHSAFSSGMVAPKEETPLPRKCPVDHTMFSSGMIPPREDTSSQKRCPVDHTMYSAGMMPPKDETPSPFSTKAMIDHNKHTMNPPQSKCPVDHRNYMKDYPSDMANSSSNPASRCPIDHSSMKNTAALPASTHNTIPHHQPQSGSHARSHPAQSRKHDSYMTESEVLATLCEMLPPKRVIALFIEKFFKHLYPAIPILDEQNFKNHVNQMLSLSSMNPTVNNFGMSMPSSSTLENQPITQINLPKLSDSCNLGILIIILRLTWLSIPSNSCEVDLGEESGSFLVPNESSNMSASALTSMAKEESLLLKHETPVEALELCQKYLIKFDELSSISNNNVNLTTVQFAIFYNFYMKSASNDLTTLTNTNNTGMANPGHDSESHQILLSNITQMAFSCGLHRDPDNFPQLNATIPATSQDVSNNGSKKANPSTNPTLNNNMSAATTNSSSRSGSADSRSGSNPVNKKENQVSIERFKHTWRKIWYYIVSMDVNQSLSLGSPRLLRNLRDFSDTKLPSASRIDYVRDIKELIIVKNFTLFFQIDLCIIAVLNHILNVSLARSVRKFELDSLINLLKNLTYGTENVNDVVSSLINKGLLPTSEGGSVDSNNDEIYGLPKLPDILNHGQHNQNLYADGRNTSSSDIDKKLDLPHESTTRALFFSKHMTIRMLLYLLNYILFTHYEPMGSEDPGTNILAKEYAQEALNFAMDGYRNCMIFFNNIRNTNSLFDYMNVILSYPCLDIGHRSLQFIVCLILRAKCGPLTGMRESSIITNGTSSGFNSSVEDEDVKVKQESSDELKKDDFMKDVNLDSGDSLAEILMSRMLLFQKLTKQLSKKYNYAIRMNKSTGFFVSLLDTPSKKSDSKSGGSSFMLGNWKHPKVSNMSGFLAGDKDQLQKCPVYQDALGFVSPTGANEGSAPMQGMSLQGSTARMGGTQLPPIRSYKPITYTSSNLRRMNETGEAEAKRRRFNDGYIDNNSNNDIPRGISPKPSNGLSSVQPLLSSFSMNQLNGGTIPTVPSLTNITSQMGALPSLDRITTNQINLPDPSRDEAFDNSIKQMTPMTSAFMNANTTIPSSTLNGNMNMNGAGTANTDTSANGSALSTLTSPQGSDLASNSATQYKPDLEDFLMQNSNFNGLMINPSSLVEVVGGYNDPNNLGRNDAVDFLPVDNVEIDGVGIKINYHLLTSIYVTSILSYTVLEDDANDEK
row,Sequence,PBM E-score
1,AGAAGACT,-0.226
2,ACCTAGGA,-0.114
3,GCCGGCAA,0.373
4,AAAGGGAG,-0.27
5,CTATTGTA,-0.0441
6,CGCTTGTA,0.249
7,GAGTCACC,-0.115
8,ACGCCAGG,-0.0431
9,GGAATGCC,0.191
10,AACTTACT,-0.0986
11,TCATCTCA,-0.112
12,CCGATGTC,0.295
13,CAGCTAAC,-0.187
14,ACACTGGG,-0.115
15,ATATCTTA,-0.0336
16,CGACCTTA,0.0924
17,AAGTTCTA,0.00638
18,AATAGGTA,-0.145
19,AGATGTGC,-0.078
20,AAAACCAT,-0.0143
21,TTATTGAA,-0.295
22,CGGTGGCA,-0.0459
23,GCACCACA,-0.168
24,TAACGAGA,-0.143
25,AGCACCAG,-0.125

row,Sequence,PBM E-score
1,CCGCCTCC,0.0265
2,CCCATGGA,-0.191
3,CATTGAAA,-0.0176
4,GCCGCTAA,0.287
5,AGCTGTAC,0.112
6,ATTCATGG,-0.137
7,CAATTCTA,-0.177
8,ACCTGCAA,-0.255
9,ATACATGA,-0.295
10,CGCCAAGA,-0.172
11,CATAGTCC,0.0144
12,AGAACCAT,-0.122
13,TAATTTAA,-0.0891
14,GATCTGCA,0.0206
15,ACGCAAGC,-0.202
16,TCTTCTAA,-0.0562
17,ATGATCAC,-0.0881
18,AACATATT,-0.0778
19,GGTCATTA,0.0807
20,ACGCCGCT,0.108
21,CACCGTGA,-0.0173
22,ACCCGCAG,0.139
23,AAACCTAC,-0.148
24,AAGCCGCC,0.104
25,ACTAAGGG,-0.0353

row,Sequence,PBM E-score
1,AGAGTACC,-0.0888
2,AGCAGTTA,-0.0815
3,AATACCTC,-0.00341
4,CTTCTCTA,-0.267
5,GGATGAAA,0.17
6,CATGGAAC,-0.105
7,CTTCTAGC,-0.0959
8,CCACTGCC,-0.0683
9,CTCAAGAA,-0.123
10,ACAAAAAT,-0.0901
11,AACACCAT,-0.0255
12,AGAAGTGA,-0.196
13,ATCTTAGC,-0.0669
14,ATAACGCG,0.171
15,AACGCAAA,0.065
16,GCATTAAA,-0.102
17,CGGCGTAC,0.267
18,GATAGCGC,0.0877
19,AGATGGCC,0.11
20,ACTACTCG,0.13
21,CCGAAGGC,0.256
22,AAAAAAGC,-0.123
23,CACTATCC,-0.0832
24,CCGATGGC,0.204
25,GATCGGCA,0.206

row,Sequence,PBM E-score
1,TCGACAGA,-0.329
2,CGCGACCC,0.00906
3,TGCTAAAA,-0.0739
4,CAATTCTG,-0.284
5,GCTGAATA,-0.281
6,AATGGTCA,-0.179
7,ATTGTTTG,-0.163
8,TCAGTTCA,-0.153
9,GTGTGAAC,-0.107
10,AACCCTGT,-0.129
11,ACTTGCAA,-0.093
12,AAGGTAAC,-0.049
13,TGGGCACA,-0.229
14,ATGGGCAA,-0.0279
15,AGCCCTTG,-0.311
16,GATTGCTA,-0.236
17,GGGAGAAC,-0.0503
18,TAGATCGA,-0.101
19,ATTTAGGG,0.197
20,ACGCATTA,-0.14
21,AGGATACT,-0.191
22,AGAATAGA,-0.0835
23,ACCAGCAT,-0.199
24,ACGGAAGT,0.319
25,CGGATGTC,0.35

row,Sequence,PBM E-score
1,CCGTCACC,0.0705
2,ACATCAGG,-0.132
3,AGAGGGCT,-0.318
4,AACGTTCT,-0.016
5,ATGCCATA,-0.292
6,CGAATTAG,-0.0666
7,GCGGACTA,0.307
8,CACCTTCG,-0.00991
9,GGGTATAC,0.262
10,TCGCTGAA,-0.0999
11,ATAAGTGG,-0.0671
12,AACGTGCG,0.023
13,CTACTTCA,-0.134
14,CGCACCAC,-0.0674
15,AGGCAACA,-0.2
16,GGGCGGTA,0.315
17,AGGCGGAA,0.0183
18,TCGCACAA,-0.054
19,ATACATTG,0.0247
20,ATGTAGGC,0.00509
21,CCTCTACG,-0.189
22,GCAGATCA,-0.2
23,ATTATAGG,-0.045
24,AAACCAAC,-0.0722
25,CAAGTGCA,-0.435

row,Sequence,PBM E-score
1,AATTACAC,0.0385
2,ATCGTATA,0.0642
3,TAATCAAA,0.197
4,GCAATTAC,0.173
5,AAACCTAT,-0.0917
6,CAATAAGG,-0.149
7,ACTGACCA,-0.161
8,ATGGCGGC,0.195
9,ACACCAAT,0.0155
10,ACCAGGAT,0.0532
11,CCTCCGGC,0.399
12,CTATATGA,-0.0844
13,TCCTGACA,-0.299
14,ACTGTACA,-0.321
15,TAAAAAAA,-0.0743
16,GGTTGAGA,0.00778
17,TATCTGGA,-0.108
18,ACTTCTAC,-0.119
19,CGCCGACA,0.215
20,CACGCCGC,0.0522
21,AGCGTGTC,-0.213
22,ATTCCTAG,-0.183
23,ACGGCTTG,-0.117
24,CGGTGTGC,0.165
25,CAGCCAAC,-0.219

row,Sequence,PBM E-score
1,CTATATAA,-0.207
2,CAGAACTG,-0.013
3,AATATTCT,-0.0515
4,AGCGGTAT,0.144
5,CGGACCCA,0.346
6,AAGGCAGG,-0.174
7,AACGTGAG,-0.193
8,GTGCATCA,-0.21
9,AGAGCGTC,-0.225
10,GGCAGCTA,-0.00611
11,AGGTCAAT,-0.198
12,CCAACCCA,-0.291
13,ATTCAGGC,-0.122
14,CCACGGTC,-0.0373
15,ACGACCAT,-0.254
16,AAAGGCGA,-0.0146
17,GGCGCTAC,0.0372
18,ACACGGTG,0.072
19,CGGATCGA,0.247
20,ATCTAGGA,-0.0897
21,AATAAGGT,0.109
22,ATGATAAG,-0.054
23,ACAAGCGT,-0.101
24,ATCTTTAG,0.0582
25,TATACGCA,0.0553

row,Sequence,PBM E-score
1,CCACTCGG,0.219
2,AGTCGCGC,0.101
3,CCGATGAC,0.292
4,CGTCCTGC,-0.249
5,CGATGACC,0.228
6,ACAGCGAT,0.00087
7,ACCAATTC,0.0498
8,CGGCTCCA,0.232
9,ATTCCGCC,0.295
10,CAAACAGA,-0.112
11,CATGTTGC,-0.0889
12,CCAGTGCG,0.0478
13,GCATTCCA,-0.00998
14,ATGGTGAA,-0.0453
15,AAAACTAA,-0.208
16,CTGATGCA,-0.313
17,ATGAATCC,0.108
18,GTTAAGTA,-0.074
19,CTCATATA,-0.0576
20,CGCATCCC,-0.00146
21,AATATCGA,0.0281
22,CAGCCGAA,0.178
23,CACGGGAG,-0.222
24,ACGGGCCT,0.188
25,CGCCGGTA,0.345

row,Sequence,PBM E-score
1,GATCCGGC,0.375
2,AAACTATT,-0.0483
3,CGCGAAAC,0.107
4,AGCGCAGA,-0.0791
5,CGTACGTA,-0.0805
6,ACCGATAT,0.43
7,CGAAACCA,0.0663
8,CATCAATA,-0.0745
9,AACATTAC,0.0352
10,CGAACCCG,0.255
11,CAATAGGA,-0.198
12,ACAAACGC,0.113
13,ACGCCGAA,0.313
14,TAGTAATA,-0.19
15,AGATGGGC,0.0565
16,ACTACCAT,-0.226
17,ACTAGGGA,-0.234
18,AAGCTTAT,-0.0384
19,AACAACAC,-0.24
20,AAGAGACT,-0.132
21,CCATTCGG,0.253
22,CTCGGTAA,0.273
23,AGATATCT,-0.104
24,ACCCGTAT,-0.0216
25,GCGTCTAC,-0.0531

row,Sequence,PBM E-score
1,AGATTCTA,-0.0893
2,AATTAAAC,0.104
3,CAAAGTAC,-0.251
4,CACGAATA,-0.219
5,AGGCTTAG,-0.166
6,GCAAGGAA,0.0246
7,CAGGTCGG,0.128
8,ACCACTTA,-0.00971
9,GCAGGAGA,0.033
10,CTATCCGC,0.257
11,GACCCAGC,-0.262
12,CTTATTGA,-0.115
13,ATACTACG,-0.0503
14,CAGCCATC,-0.087
15,AGCGGGCG,0.222
16,GCCAGGGA,-0.285
17,ATCACAAA,-0.11
18,CACAGCCG,0.186
19,CCGTTAAA,0.35
20,AGTCCTTA,-0.245
21,CTCAGAAC,-0.199
22,AACATCGA,-0.0653
23,ATTGCTAG,-0.213
24,ACAGGCTC,-0.175
25,GGAGCTCA,-0.0213

row,Sequence,PBM E-score
1,CGGTTCAA,0.188
2,GGGGTAAC,0.0191
3,AGCGTGGA,-0.217
4,CGACAGAA,0.0432
5,ACAAAGGG,-0.162
6,CGGCTACG,0.111
7,GAGTCTAA,0.0212
8,CATCCGAG,0.265
9,CGTGTTAA,-0.311
10,GGCACACA,0.0401
11,GCTTTCAA,-0.124
12,CGTGCCAC,-0.101
13,AGAAGTCA,-0.205
14,ATACTGTC,-0.0704
15,CTCCTGCA,-0.144
16,AGGCGCGC,0.0364
17,AGAGAACG,-0.258
18,ATGTTTAA,-0.182
19,ATTTTGCG,-0.0734
20,GCGCCCCC,-0.115
21,CCGTCGAG,0.0147
22,AAATAATT,0.156
23,AAGGGTTA,-0.115
24,GCTCTGTA,-0.234
25,AGTAAAAA,-0.048

row,Sequence,PBM E-score
1,AGTAGGGA,-0.0918
2,ATCTCCTC,0.0444
3,CTACGCTC,0.00814
4,ACCACCGT,0.0464
5,AATGAACC,-0.0442
6,AATATTCC,0.231
7,ACGGGGGG,-0.129
8,AGCCTCAC,-0.289
9,CCGAATGA,0.268
10,CGGCGCAC,0.259
11,ATGCGCAT,0.023
12,CGATGAGC,0.0619
13,AATAGTAC,-0.0423
14,ATCGGGCG,0.36
15,CGTTTGAA,-0.061
16,CGTACGAG,0.0155
17,GCGTGAAC,-0.0798
18,AAGGTGGC,-0.0647
19,CTATGAAG,-0.0908
20,ATACGTTC,-0.109
21,CAAATCGA,-0.291
22,GGTGCTTA,-0.0954
23,ACTCTATC,0.00027
24,GACGCCGC,0.129
25,ACCCGGCA,0.226

row,Sequence,PBM E-score
1,CAACAAAG,-0.162
2,CCGCAATA,0.25
3,ACAGTACG,0.0244
4,GATACGAA,0.0104
5,AACTCCTA,-0.0287
6,AGATATTG,0.0929
7,GAGGACTC,-0.255
8,CCGTTTGC,0.146
9,CAAGGCAC,-0.215
10,GTAGTTCA,-0.0229
11,CCCCGGGC,0.36
12,CTGTGGAC,-0.251
13,TATAAGCA,-0.149
14,GTACCTGA,-0.173
15,AAGCACTG,-0.191
16,CGGCCATC,0.203
17,ACGAATCA,-0.0743
18,AATATGCT,-0.0232
19,CAATCCTC,-0.201
20,AGTGGGGG,-0.115
21,AGAAGTTG,-0.274
22,ATGGAGCC,-0.2
23,TAATGTGA,-0.0906
24,CACCGGCG,0.378
25,AACCTGAT,-0.183

row,Sequence,PBM E-score
1,AATACTGT,-0.107
2,CCAGCTTA,-0.0626
3,AATATAAG,0.0718
4,GGCAGAGA,0.0377
5,TGACGCAA,-0.15
6,AACTGCAT,-0.128
7,ATGTCCAG,-0.0469
8,AGAGATGC,-0.0947
9,ATCCGGAT,0.414
10,ATCCGGTA,0.357
11,AGAATTTC,-0.0624
12,ACCGTACG,-0.072
13,GGATCGAC,0.17
14,ATTTGAAA,-0.0416
15,ACAACCCT,-0.155
16,ACATCAAA,0.0314
17,CCAAAGGA,-0.228
18,CAGTCCAC,-0.272
19,CCAGGTAG,-0.121

# From the supplement of paper PMC3334620
